# The supplement of paper PMC11417369
# ± gives the standard deviation of the averaged measurements. This is one part of the list.
# Tested on: PfAP2-LT AP2 domain (GST-tagged)
# Assay: gcPBM binding intensity (ln(normalized median fluorescence intensity)); higher = stronger DNA binding
# Summary of the method: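 Each value is the highest Masliner-normalised natural-log median intensity across replicate spots of either orientation of a probe. The probes were primer-extended double-stranded 36-bp intergenic genomic sequences on an Agilent 4 × 180k array, alongside negative controls, exposed for 1 h to GST-tagged P. falciparum DNA-binding domains expressed in E. coli. Bound protein was picked up with Alexa488 anti-GST antibody and scanned at 488 nm.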
row,Sequence,gcPBM binding intensity (ln)
1,ACGAAGATTTATCTTGCACACGCAAAAAAAAAAAAA [CACACA_site7933],8.86 ± 0.46
2,AACATTTCCTTTCTGTGTACATATAAACCCATCTAT [XGTACX_site2071],8.9 ± 0.47
3,TTTAAAAAAAAAAATACACACATAAAAATTTTCAAA [CACACA_site703],8.55 ± 0.52
4,TTATTTAAAAAATTTTTAAATATACAAAAAAAAAAA [TGCATGCA_negctrl_site464],8.03 ± 0.44
5,TTAATAATTAATTATAGTACACATTTATATTAATAA [XGTACX_site190],8.34 ± 0.46
6,ATTATAAGAAGGGGGGGTACATAAATATAAATGTAT [XGTACX_site5624],10 ± 0.31
7,TTTAATTTTCGGTGTGCACACAACTATGAGTTTTTA [CACACA_site3034],9.28 ± 0.33
8,AATTGAATAAATTAAACATGCACAGATGTTCTATTT [TGCATGCA_site692],8.68 ± 0.42
9,TACTGGTATCGATATAGTACATATAATATTATGTTA [XGTACX_site7490],8.84 ± 0.36
10,AGGATTAAAAAAACATGTACGTATTTAAATATATTT [XGTACX_site8774],8.79 ± 0.49
11,TTTTTTTTTTTTTTTTTTTTTTTTTTTTTTTTTTTT [CACACA_negctrl_site104],8.74 ± 0.13
12,GTATAAAAAAATAAAAGTACAAAAAAAAAAGACTGA [XGTACX_site186],8.94 ± 0.57
13,AAATAAAAAATATGAACACACATATATAACAAAATA [CACACA_site261],9.11 ± 0.52
14,CATATACTTCTGTGCACACGAATATTTTTCTTCTTC [CACACA_site1407],9.35 ± 0.4
15,TGTTGTCCTAATTCTACACACAATGGTTTATTAAAA [CACACA_site2648],8.91 ± 0.38
16,TATACTCATATTTTTACACACATATTTTTTCATATA [CACACA_site5412],9.05 ± 0.5
17,TTTTAACGTAAAACATTGATGATATAAAAAATAGGA [GTGCAC_negctrl_site540],8.44 ± 0.45
18,TTAAAATATACATAAACACACACAAAACGTTTAAGA [CACACA_site8267],9.24 ± 0.38
19,AATTTAAAATATATAGTACACACGTGAACACAAATA [CACACA_site416],8.9 ± 0.43
20,TTTTTTTTTTTTTTTTTTTTCACATGTGTGGAAAAA [GTGCAC_negctrl_site352],8.28 ± 0.29
21,AGGATATATAAGTATACACACATATTTATATTTATA [CACACA_site6239],8.87 ± 0.45
22,TGTATTTATAATAAAACACACATTTTTAATGTGCTC [CACACA_site4908],8.78 ± 0.57
23,TAACAATAACTTTATACACACATAATATATATATAT [CACACA_site3543],8.98 ± 0.32

row,Sequence,gcPBM binding intensity (ln)
1,AAAAAAAAAAAAAACACACACACACCCATAAATATA [CACACA_site151],10.2 ± 0.15
2,TTTGTGTTTATAAATTGTACAAAGGTGCAAGAAGAA [XGTACX_site2159],8.84 ± 0.45
3,ATATGATCATAAAACACACACACAAAAAAAAAAAAA [CACACA_site1806],9.62 ± 0.45
4,AAAAAAAAAAAACACACACACAATAGTATATAAATC [CACACA_site956],9.8 ± 0.4
5,TTCAAGCCCTTCTGCTTACACACAGTAATTATTGTG [CACACA_site2952],9.31 ± 0.25
6,TATTTTTATTATATGGTGCATATATACATACATATA,8.72 ± 0.4
7,AAGTGCATATTATTCACACATAATAATTGTATACCT [CACACA_site5965],8.9 ± 0.4
8,TGTAAATTATAACGTGCACACATATTTAAAATGAAA [CACACA_site8915],9.01 ± 0.36
9,ATATAGAAAATGCATACACACTTTATAAATATATTT [CACACA_site6553],8.87 ± 0.45
10,AGATATTTATTGAGTGCATGTTATAAAGGGAAAAAA [TGCATGCA_site88],8.61 ± 0.42
11,AATTAGATGGATAAATGTACATAATGTGAATATATT [XGTACX_site86],8.98 ± 0.42
12,ATCCACTTTTTGAAGACACACACAAAAAAAAAAAAA [CACACA_site8818],8.95 ± 0.4
13,TAAAAATAATTTGCATGTACATAGGTCGATGTATTT [XGTACX_site1357],8.87 ± 0.4
14,TAATGAGGAAATACAGCACACGTTATTACACTTTTC [CACACA_site5399],9.04 ± 0.38
15,AATAATGTTATAAATTGTACGTGTATTATTCATTAC [XGTACX_site894],8.96 ± 0.43
16,AAATTGGTTCATCAATGTACATGTAAAATAAATCAA [XGTACX_site4795],8.81 ± 0.44
17,TATATTTATCCATACAAGAAAAAAAAAAAAAAAATA [CACACA_negctrl_site1328],8.36 ± 0.42
18,TACACCCACCCACATACACACACATACACATATATA [CACACA_site8503],10.1 ± 0.21
19,AAAAAAAAAAATATATTAAAATAAAAAATATTAACA [GTGCAC_negctrl_site13],8.3 ± 0.61
20,CCACTTAAAATAAAAAGTACATACAGGTGTTATACA [XGTACX_site8124],8.68 ± 0.39
21,AGCATATTATTTTAGGTGCACTTGAAATGTGTTAAC,8.86 ± 0.38
22,TTTAAATAAAATATTACACACTTAGAAAGATATATA [CACACA_site7684],8.46 ± 0.52
23,TTTTTTTTTTATTGTACATGCAAAAAATTCCACACA [TGCATGCA_site279],8.58 ± 0.47

row,Sequence,gcPBM binding intensity (ln)
1,CAAATAAAAACAAAACGTACGAATAAATTATTGTTA [XGTACX_site5136],9 ± 0.44
2,ATATCGTTATTTTTATGTACTAAAATATTTAATTAT [XGTACX_site3516],8.71 ± 0.49
3,TATTTGATCTAAAGAGCATGCAAAAACGAACAAGAT [TGCATGCA_site136],9.21 ± 0.33
4,ATATATAAAAATTAGGTGCATTAAATTAAAATATAT,8.61 ± 0.47
5,CACATATAAATATTAACACACATAATGAATTATATA [CACACA_site2741],8.93 ± 0.37
6,TTTATATAAATTTTTTGTACACAAGTAAAAACGCGT [XGTACX_site2459],8.54 ± 0.53
7,ACACAAATAAATATAACATATATATTATATTATATT [CACACA_negctrl_site710],8.8 ± 0.45
8,TCAATATTAAATTATTGTACATGTATGTATATATAT [XGTACX_site3861],8.76 ± 0.45
9,TTTTTTTTTTTTTTTTTACACACTTTATTCAAACAA [CACACA_site9360],8.44 ± 0.43
10,ATAAAATATATATATATAAAAATAAATACATAAATA [GTGCAC_negctrl_site157],8.82 ± 0.46
11,AATATAAAACTTTAGAGTACTTATCATTAAAATATA [XGTACX_site4509],8.36 ± 0.6
12,TTAAAAGTAAGCAAAGTGCATATAACAAAAGTAAAG,8.96 ± 0.48
13,TAAAATAAAAAAGTAGTACACACTTCACGATATTTT [CACACA_site3896],8.82 ± 0.43
14,ATTAATAATGAAAAAAAACACACGGTACATTCAAAG [CACACA_site1302],9.03 ± 0.52
15,TATATAAGAACTTTTACACACATGAAAATGTAGATA [CACACA_site7711],8.84 ± 0.39
16,TATATATATATATATACACACATACAGATATATATT [CACACA_site4629],9.5 ± 0.38
17,ATATACACATATACATGTACAAATATATATACACAT [XGTACX_site2986],9.09 ± 0.39
18,CACTAAAAGAAACACACACACACACCCATATATATA [CACACA_site4151],10.2 ± 0.23
19,TTACTATTATTATTTTTTATTTTTATTTTATTTATT [TGCATGCA_negctrl_site269],8.61 ± 0.64
20,TTGTAAGAAAGACACACACACACATATAAATATGTA [CACACA_site6516],9.81 ± 0.23
21,TATTTAAAATAATGTGCAAAAGAATAAATAAATAAA [TGCATGCA_negctrl_site194],8.84 ± 0.52
22,TTCATTTTCATATATTGTACAAAATTTTATAAGGTT [XGTACX_site4522],8.57 ± 0.42
23,ATATATATATATAATACACACTAAAGTAACATAATA [CACACA_site5580],9.04 ± 0.3

row,Sequence,gcPBM binding intensity (ln)
1,TGTATATAATCGAGTGCACACACAAAAAAAAAGTGA [CACACA_site8417],9.44 ± 0.47
2,TTCATGTCCTATTAATGTACTCTACACACATATAAG [XGTACX_site899],9.08 ± 0.45
3,AAAAAAAAAAAAAAAACACACACATATATATATATA [CACACA_site8571],9.72 ± 0.29
4,ATTTTATATACACTTTGTACTTATTTTATTCTTCTT [XGTACX_site4200],9.06 ± 0.56
5,TTTATTTATTTTTGTTGTACACTTGTATATATTATT [XGTACX_site6486],9.1 ± 0.47
6,TACGCAACCAAAAGTTGTACTAATTTTTTTTTTTTG [XGTACX_site7432],8.54 ± 0.47
7,GGAACAAATAATATCACACATATATATATATATATA [CACACA_site5670],10.2 ± 0.41
8,ATATATTTTATACATACACACATATAAATATTTTTT [CACACA_site7780],8.88 ± 0.43
9,TAATAAATATATTGAAGTACTTATAAAAAGCAATAT [XGTACX_site6262],8.82 ± 0.45
10,TTTTTTAATACATATGCATGTTCAAGTACGAAAAAA [TGCATGCA_site641],8.33 ± 0.37
11,TACGGGAAAGATAAGAAACACACGGAAAATTAGACG [CACACA_site1661],9.12 ± 0.55
12,TATTAAACTTGACACACACACACACGCATATATAAA [CACACA_site6496],10.1 ± 0.14
13,ATTTCTATATATTGTGCATGCCATTACACCAAATAT [TGCATGCA_site813],9.15 ± 0.43
14,AGAATTTAGAAACAATGTTGTATATGTAATACCTTT [XGTACX_negctrl_site149],8.71 ± 0.4
15,TATATATATAAAAAAAGTACGTATTTAATAAAAATA [XGTACX_site4992],8.78 ± 0.46
16,GATATTATGTGTTTGGTATTTCGATCTTGTCAGGAC [CACACA_negctrl_site426],8.93 ± 0.41
17,AAAAAAAAAAAAAAAACACACAAACAAATGAATAAA [CACACA_site5769],8.89 ± 0.5
18,AATATACAAATTACAAGTACAAATCAATATTATATG [XGTACX_site7521],8.9 ± 0.42
19,TCATTTTACAGATGTGCATGTGAATCAATCTATTTA [TGCATGCA_site787],8.7 ± 0.39
20,GTATATAATTTATATTGTACGCATATTATTATCATT [XGTACX_site7277],8.84 ± 0.35
